Measurements taken from the supplement of paper PMC12217912.
This is one part of the list. Sequences were assembled here from the parent chain. Values near 0.05 are background.

B1: TEV protease; numbered along this chain (parent)
chain: MGESLFKGPRDYNPISSSICHLTNESDGHTTSLYGIGFGPFIITNKHLFRRNNGTLVVQSLHGVFKVKDTTTLQQHLVDGRDMIIIRMPKDFPPFPQKLKFREPQREERICLVTTNFQTKSMSSMVSDTSCTFPSGDGIFWKHWIQTKDGQCGSPLVSTRDGFIVGIHSASNFTNTNNYFTSVPKNFMELLTNQEAQQWVSGWRLNADSVLWGGHKVFMVKPEEPFQPVKEATQL

Variants of: B1
Experiment: raw area under fraction-flipped curve 0-4 h after induction (AUC4h, not background-subtracted), DNA-recorder readout of cleavage of the substrate (dimensionless); higher = more cleavage of the substrate by the protease variant
Settings: temperature: 34 °C; time window: 0-4 h after rhamnose induction
Method: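 In vivo DNA recorder in E. coli TOP10(DE3) ΔrhaA at 34 °C. Each TEVp single-site mutant (parent TEVp 0) is paired with a single-site variant of the 7-mer TEVs (canonical ENLYFQ|S). The substrate sits between flexible linkers in a Bxb1-sfGFP-TEVs-SsrA fusion, so cleavage stabilises Bxb1 and speeds flipping of a recombination array, read by NGS. The value is the raw area under the fraction-flipped curve over 0-4 h after rhamnose induction (AUC4h), with ≥20 reads per time point. It is not background-subtracted; inactive controls average about 0.047.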
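Further: Bxb1 expression induced with 0.2% (w/v) L-rhamnose at OD600 near 0.5, cultures sampled hourly, flipped fraction per protease–substrate barcode pair counted by paired-end Illumina sequencing.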

Variant | area with substrate ENLYFAS | area with substrate ENLYFDS | area with substrate ENLYFFS | area with substrate ENLYFHS | area with substrate ENLYFIS | area with substrate ENLYFLS | area with substrate ENLYFMS | area with substrate ENLYFNS | area with substrate ENLYFPS | area with substrate ENLYFRS | area with substrate ENLYFSS | area with substrate ENLYFTS | area with substrate ENLYFVS | area with substrate ENLYFES | area with substrate ENLYFKS | area with substrate ENLYFWS | area with substrate ENLYFYS | area with substrate ENLYFCS | area with substrate ENLYFGS
MGESLFKGPRDYNPISSSICHLTNESDGHTTSLYGIGFGPFIITNKHLFRRNNGTLVVQSLHGVFKQKDTTTLQQHLVDGRDMIIIRMPKDFPPFPQKLKFREPQREERICLVTTNFQTKSMSSMVSDTSCTFPSGDGIFWKHWIQTKDGQCGSPLVSTRDGFIVGIHSASNFTNTNNYFTSVPKNFMELLTNQEAQQWVSGWRLNADSVLWGGHKVFMVKPEEPFQPVKEATQL [V67Q] | 0.0685 | 0.0765 | 0.0695 | 0.0576 | 0.0765 | 0.0682 | 0.0535 | 0.0648 | 0.0067 | 0.0596 | 0.112 | 0.0324 | 0.0616 |  |  |  |  |  | 
MGESLFKGPRDYNPISSSICHLTNESDGHTTSLYGIGFGPFIITNKHLFRRNNGTLVVQSLHGVFKVMDTTTLQQHLVDGRDMIIIRMPKDFPPFPQKLKFREPQREERICLVTTNFQTKSMSSMVSDTSCTFPSGDGIFWKHWIQTKDGQCGSPLVSTRDGFIVGIHSASNFTNTNNYFTSVPKNFMELLTNQEAQQWVSGWRLNADSVLWGGHKVFMVKPEEPFQPVKEATQL [K68M] | 0.06 |  | 0.0637 | 0.0744 | 0.0551 | 0.0511 | 0.0634 | 0.0642 | 0.0561 | 0.0386 |  |  |  | 0.0616 | 0.0782 | 0.0546 | 0.064 |  | 
MGESLFKGPRDYNPISSSICHLTNESDGHTTSLYGIGFGPFIITNKHLFRRNNGTLVVQSLHGVFKVNDTTTLQQHLVDGRDMIIIRMPKDFPPFPQKLKFREPQREERICLVTTNFQTKSMSSMVSDTSCTFPSGDGIFWKHWIQTKDGQCGSPLVSTRDGFIVGIHSASNFTNTNNYFTSVPKNFMELLTNQEAQQWVSGWRLNADSVLWGGHKVFMVKPEEPFQPVKEATQL [K68N] | 0.0626 |  | 0.0635 | 0.0691 | 0.066 | 0.0465 | 0.0639 |  | 0.068 | 0.0593 | 0.0559 | 0.0676 | 0.0353 | 0.0773 |  | 0.0533 | 0.0583 | 0.0691 | 0.0745
MGESLFKGPRDYNPISSSICHLTNESDGHTTSLYGIGFGPFIITNKHLFRRNNGTLVVQSLHGVFKVKMTTTLQQHLVDGRDMIIIRMPKDFPPFPQKLKFREPQREERICLVTTNFQTKSMSSMVSDTSCTFPSGDGIFWKHWIQTKDGQCGSPLVSTRDGFIVGIHSASNFTNTNNYFTSVPKNFMELLTNQEAQQWVSGWRLNADSVLWGGHKVFMVKPEEPFQPVKEATQL [D69M] | 0.0666 |  | 0.0969 |  | 0.0752 |  | 0.0505 |  | 0.0641 |  |  | 0.0633 |  | 0.0564 | 0.069 | 0.0667 |  | 0.0725 | 0.0601
MGESLFKGPRDYNPISSSICHLTNESDGHTTSLYGIGFGPFIITNKHLFRRNNGTLVVQSLHGVFKVKDYTTLQQHLVDGRDMIIIRMPKDFPPFPQKLKFREPQREERICLVTTNFQTKSMSSMVSDTSCTFPSGDGIFWKHWIQTKDGQCGSPLVSTRDGFIVGIHSASNFTNTNNYFTSVPKNFMELLTNQEAQQWVSGWRLNADSVLWGGHKVFMVKPEEPFQPVKEATQL [T70Y] | 0.0535 |  | 0.0687 | 0.0585 | 0.0534 |  | 0.0575 | 0.0624 |  | 0.0437 | 0.06 | 0.0432 |  | 0.0595 | 0.0569 | 0.0519 | 0.0386 |  | 
MGESLFKGPRDYNPISSSICHLTNESDGHTTSLYGIGFGPFIITNKHLFRRNNGTLVVQSLHGVFKVKDTYTLQQHLVDGRDMIIIRMPKDFPPFPQKLKFREPQREERICLVTTNFQTKSMSSMVSDTSCTFPSGDGIFWKHWIQTKDGQCGSPLVSTRDGFIVGIHSASNFTNTNNYFTSVPKNFMELLTNQEAQQWVSGWRLNADSVLWGGHKVFMVKPEEPFQPVKEATQL [T71Y] | 0.0629 |  |  | 0.0595 | 0.0499 | 0.0546 |  | 0.0633 | 0.0285 |  | 0.0452 |  | 0.048 |  | 0.0574 | 0.0625 | 0.0674 |  | 
MGESLFKGPRDYNPISSSICHLTNESDGHTTSLYGIGFGPFIITNKHLFRRNNGTLVVQSLHGVFKVKDTTYLQQHLVDGRDMIIIRMPKDFPPFPQKLKFREPQREERICLVTTNFQTKSMSSMVSDTSCTFPSGDGIFWKHWIQTKDGQCGSPLVSTRDGFIVGIHSASNFTNTNNYFTSVPKNFMELLTNQEAQQWVSGWRLNADSVLWGGHKVFMVKPEEPFQPVKEATQL [T72Y] | 0.0566 | 0.0474 | 0.0762 | 0.0529 | 0.051 | 0.0613 | 0.0767 |  | 0.0606 |  | 0.0618 | 0.0488 |  | 0.0605 | 0.0688 | 0.0538 | 0.0552 |  | 0.0566
MGESLFKGPRDYNPISSSICHLTNESDGHTTSLYGIGFGPFIITNKHLFRRNNGTLVVQSLHGVFKVKDTTTFQQHLVDGRDMIIIRMPKDFPPFPQKLKFREPQREERICLVTTNFQTKSMSSMVSDTSCTFPSGDGIFWKHWIQTKDGQCGSPLVSTRDGFIVGIHSASNFTNTNNYFTSVPKNFMELLTNQEAQQWVSGWRLNADSVLWGGHKVFMVKPEEPFQPVKEATQL [L73F] | 0.0595 |  | 0.0625 |  | 0.0538 | 0.0543 | 0.07 |  |  | 0.0487 | 0.0426 |  |  |  | 0.0562 | 0.0721 | 0.0544 | 0.0536 | 0.0698
MGESLFKGPRDYNPISSSICHLTNESDGHTTSLYGIGFGPFIITNKHLFRRNNGTLVVQSLHGVFKVKDTTTLQHHLVDGRDMIIIRMPKDFPPFPQKLKFREPQREERICLVTTNFQTKSMSSMVSDTSCTFPSGDGIFWKHWIQTKDGQCGSPLVSTRDGFIVGIHSASNFTNTNNYFTSVPKNFMELLTNQEAQQWVSGWRLNADSVLWGGHKVFMVKPEEPFQPVKEATQL [Q75H] | 0.064 | 0.0664 | 0.0634 |  | 0.0503 | 0.0674 | 0.0608 | 0.0477 |  | 0.0633 | 0.0484 | 0.0561 | 0.0571 | 0.0662 | 0.0578 | 0.0534 |  |  | 
